“And” between values parts separate entries of the source, which are not always exact repeats. Identical values can stand only once. Like-named read-outs stand apart in the source and are kept apart here.

Data on three molecules can be found in patent publication US12484583B2 (priority 2019, dated 2025).

Test [1] has as its system Fusarium graminerum. The test is classed as cell-based.
For test [2], the system named is Fusarium culmorum. The format is in vivo. Particulars: Corn seed; imidacloprid full label; 14 days.
Test [3] deals with Botrytis cinerea. In words: Fungal growth on PDA agar, chlorantraniliprole (Example 15). The test is classed as cell-based. The note with it: natamycin 1 ppm alone. From the text:
(§1) The Colby equation (Colby, 1967. Weeds 15: 20-22) calculates the expected antifungal activity (E in %) of a combination comprising more than one active ingredients: E=X+Y−[(X·Y)/100] wherein X and Y are the observed antifungal activities (in %) of the individual active ingredients x and y, respectively. If the observed antifungal activity (O in %) of the combination exceeds the expected antifungal activity (E in %) of the combination and the synergy factor O/E is thus >1.0, the combined application of the active ingredients leads to a synergistic antifungal effect.
(§2) Agar medium was prepared by mixing in a 100 ml Duran bottle 3.9 g of potato dextrose agar (PDA) from Carl-Roth (Carl-Roth GmbH+Co. KG, Karlsruhe, Germany) with 100 ml deionized water and autoclaving the Duran bottle at 120° C. for 15 minutes. After autoclaving, the solution was cooled by putting it in a 48° C. oven for about two hours. […] The medium in the Duran bottle was divided over 5 petri dishes (90×15 mm), 20 ml per petri dish by using 25 ml serological pipets (ROTILABO®; Carl-Roth).
(§3) Fungal spore suspensions were prepared by drenching a fully grown petri dish with sterile water. The fungus was scraped off and filtered through a Miracloth (pore size: 22-25 μm) (Merck KGaA, Darmstadt, Germany; catalogue number: 475855). The number of spores were counted with a hemocytometer and fungal suspension was adjusted to 10^6 spores per ml. Afterward, 5 µl of prepared spore suspension was pipetted on the center of the agar plate. The plates were incubated at 25° C. Measurement of the fungal growth was done using calipers at different time points.
See Example 6. In this example the product CORAGEN® of Dupont containing the active ingredient chlorantraniliprole belonging to IRAC Group 28 was used.
The insecticide concentration “N” (see below) that was used was 125 μl of insecticide product per 100 ml PDA agar. Per 100 ml PDA agar the concentration 0.25N contained 31.25 μl coragen; 0.5N contained 62.5 μl coragen, 2N contained 250 μl coragen, 5N contained 625 μl coragen and 10N contained 1250 μl of the coragen product per 100 ml PDA agar.
The efficacy was assessed after 4 and 5 days of incubation in a stove at 25° C.

Test [4] concerns Fusarium culmorum. In words: Fungal growth on PDA agar, fipronil (Example 6). The test is classed as cell-based. The note with it: natamycin 1 ppm alone; 7 days.
Description: as §1, §2, §3
The insecticide concentration “N” (see below) that was used was 0.94 g insecticide product per 100 ml PDA agar. 0.5 N is 0.47 g. […] The efficacy was assessed after 7 days of incubation in a stove at 25° C. Synergistic calculation was done using the Colby equation.

For test [5], the system named is Fusarium graminerum. The test is classed as cell-based. Particulars: 5 days.
Test [6] has as its system Botrytis cinerea. Nature of the test: Fungal growth on PDA agar, hydropene (Example 16). The test is classed as cell-based. Particulars: natamycin 1 ppm alone; 4 days.
The test system of test [7] is Fusarium culmorum. Nature of the test: Fungal growth on PDA agar, abamectin, 8 and 12 days (Example 13). The test is classed as cell-based.
Description: as §1, §2, §3
See Example 6. In this example the product […]® (Syngenta) containing the active ingredient abamectin belonging to IRAC Group 6 was used.
The insecticide concentration “N” (see below) that was used was 75 μl of insecticide product per 100 ml PDA agar. 0.5N is 37.5 μl of the product per 100 ml PDA agar.
The efficacy was assessed after 8 and 12 days of incubation in a stove at 25° C.

Test [8] has as its system Fusarium graminerum. The format is cell-based. The note with it: 8 days.
Test [9] has as its system Fusarium graminerum. The format is cell-based. The note with it: 8 days. The source holds these as a separate data set.
For a further test, the system named is Sclerotinia sclerotiorum. In words: Fungal growth on PDA agar, lambda-cyhalothrin (Example 9). The test is classed as cell-based. Particulars: natamycin 0.5 ppm alone; 4 days.
Description: as §1, §2, §3
(§4) See Example 6. In this example the product KARATE ZEON® of Syngenta containing the active ingredient lambda-cyhalothrin belonging to IRAC Group 3 was used.
The insecticide concentration “N” (see below) that was used was 500 μl of a 25 times in water diluted insecticide solution per 100 ml PDA agar. 2N is 1000 μl of the in water diluted solution per 100 ml PDA agar. 5N was 100 μl of the undiluted product in 100 ml of PDA agar.

Test [10] relates to Botrytis cinerea. Nature of the test: Fungal growth on PDA agar, lambda-cyhalothrin (Example 10). Particulars: natamycin 1 ppm alone; 6 days. The format is cell-based.
Description: as §1, §2, §3, §4
The insecticide concentration “N” (see below) that was used was 20 μl of insecticide product per 100 ml PDA agar. 0.5N is 10 μl of the product per 100 ml PDA agar. 0.25N was 5 μl of the undiluted Karate zeon product in 100 ml of PDA agar and 0.125N was 2.5 μl of the insecticide product per 100 ml PDA agar.
1:25 (w/w) and 1:50 (w/w). The efficacy was assessed after 6 days of incubation in a stove at 25° C.

Test [11] relates to Fusarium culmorum. Nature of the test: Fungal growth on PDA agar, chlorfenapyr (Example 20). The format is cell-based. Particulars: natamycin 1 ppm alone; 7 days.
Description: as §1, §2, §3
See Example 6. In this example the product SPECTRE® (Adama) containing the active ingredient chlorfenapyr belonging to IRAC Group 13 was used.
The insecticide concentration “N” (see below) that was used was 1 ml of Spectre product added to 100 ml PDA agar. 0.5N: 0.5 ml and 0.25N is 0.25 ml Spectre per 100 ml of PDA agar.
(§5) The efficacy was assessed after 7 days of incubation in a stove at 25° C.

Test [12] has as its system Fusarium graminerum. The test is classed as cell-based. The note with it: 3 days.
A further test relates to Alternaria solani. In words: Fungal growth on PDA agar, lambda-cyhalothrin (Example 8). The format is cell-based. Particulars: natamycin 0.5 ppm alone; 4 days.
Description: as §1, §2, §3, §4
The insecticide concentration “N” (see below) that was used was 500 μl of a 25 times in water diluted insecticide solution per 100 ml PDA agar. 2N is 1000 μl of the in water diluted solution per 100 ml PDA agar. 5N was 100 μl of the undiluted Karate zeon product in 100 ml of PDA agar.

The test system of test [13] is Fusarium culmorum. Nature of the test: Fungal growth on PDA agar, lambda-cyhalothrin (Example 7). The test is classed as cell-based. Particulars: natamycin 1 ppm alone; 7 days.
Description: as §1, §2, §3, §4
The insecticide concentration “N” (see below) that was used was 20 μl insecticide product per 100 ml PDA agar. 0.5 N is 10 μl per 100 ml PDA agar.

The subject of test [14] is Fusarium culmorum. In words: Fungal growth on PDA agar, thiamethoxam (Example 12). The test is classed as cell-based. The note with it: natamycin 0.5 pm alone; 4 days.
Description: as §1, §2, §3
See Example 6. In this example the active ingredient thiamethoxam belonging to IRAC Group 4 was mixed with water to make a 1000 ppm solution. The insecticide concentration “N” (see below) that was used was 5 ml of insecticide solution per 100 ml PDA agar. 2N is 10 ml of the thiamethoxam solution per 100 ml PDA agar.
The efficacy was assessed after 4 days of incubation in a stove at 25° C.

In test [15] the test system is Fusarium culmorum. Nature of the test: Fungal growth on PDA agar, abamectin, 7 days (Example 14). The test is classed as cell-based.
Description: as §1, §2, §3
See Example 6. In this example the product […]® (Syngenta) containing the active ingredient abamectin belonging to IRAC Group 6 was used. The insecticide concentration “N” (see below) that was used was 75 μl of insecticide product per 100 ml PDA agar. 0.5N is 37.5 μl of the product per 100 ml PDA agar.
as §5

Test [16] concerns Fusarium culmorum. In words: Fungal growth on PDA agar, hydropene (Example 17). The test is classed as cell-based. Particulars: natamycin 1 ppm alone; 5 days.
The next test concerns Botrytis sp. Particulars: in vivo, Abamectin full label (18 ppm), corn seeds.
A further test has as its system Rhizoctonia. The note with it: in vivo, Abamectin full label (18 ppm), corn seeds.
The test system of another test is Trichoderma hazarum. Particulars: in vivo, Abamectin full label (18 ppm), corn seeds.
For another test, the system named is Aspergillus sp. Particulars: in vivo, Abamectin full label (18 ppm), corn seeds.
The subject of test [17] is Fusarium culmorum. The note with it: in vivo, Abamectin full label (18 ppm), corn seeds.
[18] abbreviates: natamycin 1 ppm alone, after 8 days.
Setting [19] is: natamycin 1 ppm alone, after 12 days.
Where [20] appears, read: abamectin 0.5N (37.5 μl VERTIMEC per 100 ml PDA), alone or + natamycin 1 ppm (1:6.75 w/w), after 8 days.
Where [21] appears, read: abamectin 0.5N (37.5 μl VERTIMEC per 100 ml PDA), alone or + natamycin 1 ppm (1:6.75 w/w), after 12 days.
Setting [22] is: abamectin 1N (75 μl VERTIMEC per 100 ml PDA), alone or + natamycin 1 ppm (1:13.5 w/w), after 8 days.
Where [23] appears, read: abamectin 1N (75 μl VERTIMEC per 100 ml PDA), alone or + natamycin 1 ppm (1:13.5 w/w), after 12 days.
Setting [24] is: abamectin 0.5N (37.5 μl VERTIMEC per 100 ml PDA), alone or + natamycin 1 ppm (1:6.75 w/w).
The mark [25] stands for this setting: abamectin 1N (75 μl VERTIMEC per 100 ml PDA), alone or + natamycin 1 ppm (1:13.5 w/w).

Regarding `O=[N+]([O-])NC1=NCCN1Cc1ccc(Cl)nc1` [Imidacloprid, N-[1-[(6-chloropyridin-3-yl)methyl]-4,5-dihydroimidazol-2-yl]nitramide], the “Area (fungal growth)” value with Fusarium graminerum [1] (after 8 days) is 2779.54 mm2 and 4635.62 mm2; in the test on Fusarium graminerum [1] (after 12 days), 4606.42 mm2 and 5273.80 mm2. Further, the “percentage of healthy seedlings” value with Fusarium culmorum [2] was “A (A represents the lowest rate of healthy seedlings)”.
Take `C[C@@H]1C/C=C/C=C/C=C/C=C/[C@H](O[C@@H]2O[C@H](C)[C@@H](O)[C@H](N)[C@@H]2O)C[C@@H]2O[C@](O)(C[C@@H](O)C[C@H]3O[C@@H]3/C=C/C(=O)O1)C[C@H](O)[C@H]2C(=O)O` [Natamycin, natamycin]: the “Area (fungal growth; column head not given)” value in the test on Botrytis cinerea [3] (after 4 days) worked out at 1456.89. Further, the “O % observed antifungal activity” value in the test on Botrytis cinerea [3] (after 4 days) is 42.22; in the test on Botrytis cinerea [3] (after 5 days), 27.60%; with Fusarium culmorum [4], 37.35%; with Fusarium graminerum [5], 51.54%; in the test on Fusarium graminerum [1] (after 8 days), 31.81%; in the test on Fusarium graminerum [1] (after 12 days) it was 18.35%. Besides, the “O % observed antifungal activity” value was found to be 99.61% with Botrytis cinerea [6]; 31.81% with Fusarium culmorum [7] (setting [18]); 18.35% with Fusarium culmorum [7] (setting [19]); 31.81% in the test with Fusarium graminerum [8]; 31.81% in the test on Fusarium graminerum [9]; 44.60% in the test on Sclerotinia sclerotiorum. In addition, the “O % observed antifungal activity” value came out at 27.35% with Botrytis cinerea [10]; 28.42% in the test with Fusarium culmorum [11]; 1.84% in the test with Fusarium graminerum [12]; 55.73% in the test on Alternaria solani; 37.35% with Fusarium culmorum [13]; 15.59% with Fusarium culmorum [14]. Moreover, the “O % observed antifungal activity” value is listed as 37.35% in the test on Fusarium culmorum [15] (natamycin 1 ppm alone) and 4.88% in the test with Fusarium culmorum [16]. Moreover, the “Area (fungal growth)” value in the test on Botrytis cinerea [3] (after 5 days) was 3089.49 mm2; in the test with Fusarium culmorum [4], 1865.54 mm2; in the test with Fusarium graminerum [5], 1294.81 mm2; in the test with Fusarium graminerum [1] (after 8 days) it was 2225.44 mm2; in the test on Fusarium graminerum [1] (after 12 days) it was 3962.08 mm2; in the test with Botrytis cinerea [6], 11.51 mm2. For the same molecule, the “Area (fungal growth)” value with Fusarium culmorum [7] (setting [18]) amounted to 2225.44 mm2; in the test with Fusarium culmorum [7] (setting [19]), 3962.08 mm2; in the test on Fusarium graminerum [8], 2225.44 mm2; in the test with Fusarium graminerum [9] it was 2225.44 mm2; in the test with Sclerotinia sclerotiorum, 1084.35 mm2; with Botrytis cinerea [10], 2361.79 mm2. For the same molecule, the “Area (fungal growth)” value with Fusarium culmorum [11] was determined as 1840.10 mm2; with Fusarium graminerum [12] it was 484.32 mm2; with Alternaria solani it was 722.91 mm2; in the test with Fusarium culmorum [13], 1865.54 mm2; in the test on Fusarium culmorum [14], 789.92 mm2; in the test with Fusarium culmorum [15] (natamycin 1 ppm alone) it was 1865.54 mm2. For the same molecule, the “Area (fungal growth)” value with Fusarium culmorum [16] was found to be 811.66 mm2.
In the case of abamectin, the healthy seedlings entry with Botrytis sp, in the test on Rhizoctonia, with Trichoderma hazarum, in the test with Aspergillus sp and in the test with Fusarium culmorum [17] was “A (A represents the lowest rate of healthy seedlings)” throughout. Also, the “Area (fungal growth)” value was found to be 2881.30 mm2 with Fusarium culmorum [7] (setting [20]); 4282.74 mm2 in the test on Fusarium culmorum [7] (setting [21]); 2475.61 mm2 with Fusarium culmorum [7] (setting [22]); 3944.95 mm2 in the test on Fusarium culmorum [7] (setting [23]); 764.44 mm2 in the test with Fusarium culmorum [15] (setting [24]); 453.27 mm2 with Fusarium culmorum [15] (setting [25]). Moreover, the “O % observed antifungal activity” value was 11.71% with Fusarium culmorum [7] (setting [20]); 11.74% with Fusarium culmorum [7] (setting [21]); 24.14% in the test with Fusarium culmorum [7] (setting [22]); 18.70% in the test on Fusarium culmorum [7] (setting [23]); 74.33% with Fusarium culmorum [15] (setting [24]); 84.78% in the test on Fusarium culmorum [15] (setting [25]).
